# ± gives the standard deviation of the averaged measurements. The list shows a part of the results.
# Test system: PfAP2-EXP AP2 domain (GST-tagged)
# Test: gcPBM binding intensity (ln(normalized median fluorescence intensity)); higher = stronger DNA binding
# In short: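 DNA-binding domains from P. falciparum, fused to GST and produced in E. coli, were put on an Agilent 4 × 180k double-stranded probe array for 1 h in 1× PBS holding 1% milk, 0.2 mg/ml BSA, 0.5% salmon testes DNA and 0.03% Triton X-100. Probes were primer-extended, 36 bp long and drawn from intergenic genomic regions, with negative controls included. After Alexa488 anti-GST antibody detection and a 488 nm scan, binding intensity was set as the highest Masliner-normalised natural-log median intensity across replicate spots of either probe orientation.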
row,Sequence,gcPBM binding intensity (ln)
1,ATGTTTTATATTATTAATATATATATATATATATAT [CACACA_negctrl_site331],10.1 ± 0.28
2,AATCTAATTAAAATCACACATATATTCGTCGTAATA [CACACA_site5855],8.24 ± 0.42
3,ATATATATATATATAACACACGTGTATTTATCTGTA [CACACA_site5922],9.99 ± 0.34
4,AAAAAATTAACGAGTGCACACATATTTAGATAAAAT [CACACA_site8958],8.68 ± 0.18
5,ATATATATATATATGTGTACACAAAAAATATTATAT [XGTACX_site5741],10.1 ± 0.24
6,ATTCCATAAGTAAACACACAAATGCCAAAATTTTAT [CACACA_site7491],8.6 ± 0.67
7,ATTCAAAAAAAATCAACACACAGTTACATAGCTCAA [CACACA_site2234],8.45 ± 0.64
8,GCACATATATATGAAACACACATGGAAACATCTCTT [CACACA_site3966],8.58 ± 0.52
9,AACGAAAACACTACGTGTACCAAATGTCCTGCCAAC [XGTACX_site5735],8.45 ± 0.53
10,ATGGAAAAAAAGCATTGTACATTTAAAGAAAAACAG [XGTACX_site6639],8.91 ± 0.35
11,TATTATATTTGTATGTGTACTTATATGGTTGTAATA [XGTACX_site4548],8.61 ± 0.2
12,AAATATTATCAAACATAAATTATTTTTATCCGTATA [CACACA_negctrl_site771],8.21 ± 0.4
13,ATATATGTTAATAATTGTACAAATCGATAATATATA [XGTACX_site5076],8.95 ± 0.42
14,AAAAAAATATAGATCTGTACATATATAAATATATGT [XGTACX_site511],8.21 ± 0.33
15,TCTCTAATTTTTAATACACACAAATAAATAAATAAA [CACACA_site216],8.53 ± 0.22
16,AATGTATATTATTGCACACATATATAAAATTATGCT [CACACA_site1096],8.38 ± 0.35
17,ATCTCTATGATATATACACACAAATATACAAAAAAA [CACACA_site6605],8.65 ± 0.49
18,ATTTGTGAATATATTCGGTGAACTTTGTTAACACAT [XGTACX_negctrl_site445],8.88 ± 0.39
19,TATACATATATAATATGTACATATATTTTTTTTTAA [XGTACX_site2938],8.15 ± 0.33
20,CATAAAAATATTTTCTGTACATATTCATATGACGTT [XGTACX_site3406],8.61 ± 0.33
21,ATAAATAAAATTAGGTGTACTTTAATTAAAGAAAAT [XGTACX_site3319],8.84 ± 0.21
22,AGGTTCCCAAAATGCACACCAATGAAATTATTTATT [CACACA_site553],8.49 ± 0.2

row,Sequence,gcPBM binding intensity (ln)
1,ATAAATATTGGGTGCACACACATAATATATATATAT [CACACA_site2272],10.1 ± 0.21
2,AAAATAAAAAATATAACACACAATAAATATATATAT [CACACA_site1926],9.485 ± 0.021
3,TATACAAAATAACTAGCACACATATGTATAAACATA [CACACA_site9236],8.77 ± 0.28
4,GAAAAAAAAAAAAAAAAAAAAAAATTCATTTTTTTT [XGTACX_negctrl_site54],7.98 ± 0.49
5,ATAATCATTTGGATATTCACAATATTTAAAATTAAA [CACACA_negctrl_site909],8.06 ± 0.42
6,ATTTCCTGGCTACTGTGTACTGACCTCCAGACTGCT [XGTACX_site2005],8.81 ± 0.55
7,TTTTAACTTTTATATTGTACGTTGTTTATTTTATTT [XGTACX_site7504],8.83 ± 0.47
8,TTATTTACCATCTCTACACACAAAAATTGATGTAGA [CACACA_site2811],8.3 ± 0.3
9,TCATAATGAAAACAAGCACACATACATAAAATAAAA [CACACA_site9069],8.92 ± 0.42
10,ATATGTATTAAGTGTACACATATAATGTATTTTGTT [CACACA_site4177],8.69 ± 0.27
11,TAAATTATATTATGCACACTTAAAAATATATTTAAC [CACACA_site3512],8.49 ± 0.3
12,GAATCATCCAAAATTGCATGCAAGGAAGAAGAAAAA [TGCATGCA_site764],9.975 ± 0.007
13,TTTTTATATATCACGTGTACATATTTATTTTTACTC [XGTACX_site8049],8.8 ± 0.35
14,ATATGTAATAATAAATGTACGAAACATTGAACGATG [XGTACX_site1266],8.91 ± 0.41
15,TTATAAATATAATATTGTACAAAATTTTAACATGTC [XGTACX_site5259],8.59 ± 0.4
16,CTTATGTGTATAAGTAGTACTAAATTAAAATAATAT [XGTACX_site2681],8.61 ± 0.36
17,AAATCACCTTAAGAACGTACAAACAGAAAAAAATTA [XGTACX_site4623],8.78 ± 0.56
18,TTTATTATATTTATATGTACTTATATAATATATGCA [XGTACX_site1906],8.44 ± 0.4
19,CGTATGAAACATATATGTACTTATAAAAATATAACC [XGTACX_site7539],8.72 ± 0.38
20,ATTTTAAATGTTATGCGTACATATTAATCCTACTTA [XGTACX_site1344],8.73 ± 0.3
21,TGTTTGAATAACAAAAAAAAAAAAAAAATTAAAAAA [CACACA_negctrl_site1332],8.05 ± 0.4
22,TTTTAAAAATCTATATGTACACAATACGTCTATAAA [XGTACX_site5787],8.62 ± 0.29

row,Sequence,gcPBM binding intensity (ln)
1,TATGAAAATGTTCATACACACATAAAAAAAAAAAAA [CACACA_site3236],8.51 ± 0.51
2,TACACATACACATACACACGCATAGAAACATACGAA [CACACA_site2137],8.62 ± 0.47
3,AAAAAAAAAAAAAACACACAAACGCTTTTTTTTTTT [CACACA_site686],8.64 ± 0.38
4,TACATATTTTTATATACACACAATAATTATTATAAA [CACACA_site1659],8.43 ± 0.35
5,TTTTAAATATGCAGATGTACATTATAATGTTTTATT [XGTACX_site2079],8.85 ± 0.4
6,TATATTTATTATAACACACACATATATATATTATAT [CACACA_site1061],8.44 ± 0.26
7,GATATGTACTAATACACACACATATAGATTTATATA [CACACA_site6610],8.56 ± 0.23
8,AAATATATGAATAAATGTACGAAATGAATGGATGAA [XGTACX_site7108],9.11 ± 0.59
9,TTATAATCTTATATATGTACATATATATATTATTAT [XGTACX_site7780],8.38 ± 0.32
10,AAACATGTATTTTATTGTACACATTCATAAATCACA [XGTACX_site1420],8.76 ± 0.37
11,TACATGTATGTAATATGTTTTATTTTTTTCATCTCT [XGTACX_negctrl_site79],8.31 ± 0.4
12,TTAATTAGAAATCATACACACATATATATATATATA [CACACA_site173],10.1 ± 0.4
13,CATTCAAACAAAAAAAGTACTCATCACATAATATAT [XGTACX_site1251],8.51 ± 0.52
14,TTTATATTGTTTTATTGTACATATATATTTATACAT [XGTACX_site6821],8.81 ± 0.4
15,GCAAAATATTTAAAATAATATATGTGTATATTTTTA [GTGCAC_negctrl_site149],7.98 ± 0.41
16,GAAATGTACAAATACGTACACACATATATATATATA [CACACA_site1541],9.93 ± 0.33
17,AAAAAAAAAAAAAAACTTACGATTTTAAAAAGATGG [GTGCAC_negctrl_site291],8.32 ± 0.28
18,ATATATTTATAATACACATGCAATGATATAATATAT [TGCATGCA_site20],8.6 ± 0.3
19,CATATATACATATATACACACATATATATATATATA [CACACA_site645],10.1 ± 0.27
20,TATATATATTATATAGTGCATTGAAGAAGGGGATTT,8.635 ± 0.064
21,GTGTGGTTACAGACACGAACACATTTTTTAAATATT [CACACA_negctrl_site83],8.65 ± 0.47
22,GTAAGAAAGAAAGGAAGTACGTAAGAAAGTAAGAAC [XGTACX_site1239],9.37 ± 0.45

row,Sequence,gcPBM binding intensity (ln)
1,TTTTTTTTTCTGTGAGTGCATGTAATAAAATAAATT [GTGCAC_site9740],8.8 ± 0.057
2,CATATTTGTTGACACACACACATATTTATATAAATA [CACACA_site7648],8.74 ± 0.4
3,GGGAGGATATTACACAGTACCCAGAAAATCTACGGA [XGTACX_site2551],8.8 ± 0.43
4,TTTATATGTTTAAAATGTACATGTGGTAAAAATTTT [XGTACX_site5907],8.8 ± 0.42
5,TATTCCTTATTATAATTCTTAAATAAAAAAAAAAAA [TGCATGCA_negctrl_site45],8.01 ± 0.33
6,CCCATTATTGTTGGGGGTACAATTTTGAATATATAT [XGTACX_site2227],9.7 ± 0.49
7,ATATATAAACTGAAGGGTACAATGAAAAAAGAACTT [XGTACX_site7219],9.08 ± 0.59
8,TAGGATTTTTAGTTTATTGTAACTATTATTTTATTT [CACACA_negctrl_site829],8.25 ± 0.4
9,ATTCATATATATTATACACACACATATATAAATATA [CACACA_site8228],8.56 ± 0.38
10,AAAAATACCTGAATATGTACATATGATCAATGGGCC [XGTACX_site887],9.08 ± 0.67
11,AAAATCGTGTTCTGAATACACACTAATACAAAGTTG [CACACA_site3985],8.35 ± 0.4
12,AGAAGTTTAAAAAGCACACAAAAAAAAAAAAAAAGA [CACACA_site3309],8.46 ± 0.47
13,AAATAAAATAAAAACATGCACACTTTATTTTTTTTA [CACACA_site2800],8.49 ± 0.26
14,TAAAAATATAAATTTTGTACGTAAAAAATGGTTCTT [XGTACX_site1506],8.57 ± 0.39
15,TATTCTATATAATAATGTACGTGATTTAAATTTTCA [XGTACX_site6650],8.41 ± 0.28
16,TGACCGTTTTAAGAGTGTACAAAAAAAAAAAAAAAA [XGTACX_site4141],8.21 ± 0.43
17,TAAAAAATAAGATATACACACATATATATATATATA [CACACA_site2324],10.2 ± 0.42
18,ATTCACATACATTACTTACACACCATATTAATATAT [CACACA_site459],8.85 ± 0.23
19,TAACATATTAATAACATATTTATAATATATTAATAA [TGCATGCA_negctrl_site243],7.83 ± 0.4
20,AAAAAAAAAAAAAAGGAACACACAAGTAACAATAAA [CACACA_site8792],8.74 ± 0.64
21,AATTATACTTCCTTCACACAGTTACATCATATATTA [CACACA_site5942],8.92 ± 0.41
22,ATTAAAAAAAAAAAAAGTACTTATAATTATACTCGT [XGTACX_site4852],8.37 ± 0.38

# Source: the supplement of paper PMC11417369
